Measurements from the supplement of paper PMC7826260.
This is one part of the list. Cleavage of a single-stranded DNA pool by Rep nickase domains was read by sequencing (1 h at 37 °C, 3 µM enzyme); the outer parts of the 90-letter strands are left off. A value is the log2 ratio of uncut reads to the pool without enzyme; strong cutting gives strongly negative numbers. There is no active / inactive call. Shares of all reads are compared; where an enzyme cuts many sequences, the uncut ones exceed 0.

Columns and labels:
Test in all cases: uncleaved DNA left, log2 of reads against the no-enzyme library (log2 ratio); higher = less cleavage (more negative = more Rep cleavage of the k-mer); sequences stand for … in CTCGTCCG…ACCGGAGA
[1] = test system: T1, Rep nickase domain of Muscovy duck circovirus
T1 sequence (residues 1-111, tag not shown): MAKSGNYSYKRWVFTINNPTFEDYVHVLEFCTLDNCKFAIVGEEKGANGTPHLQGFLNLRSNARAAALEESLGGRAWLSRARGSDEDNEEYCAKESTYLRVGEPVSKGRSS
Method: (§1)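 A pool of 90-nt single-stranded DNAs with seven random bases just before the constant AC of the nick site (name = the seven bases) was cut by 3 µM recombinant His6-SUMO-tagged Rep nickase domain (300 nM DNA, 50 mM HEPES pH 8.0, 50 mM NaCl, 1 mM MnCl2, 1 h, 37 °C, three replicates). Uncut DNA was amplified and sequenced.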

[2] = test system: T2, Rep nickase domain of banana bunchy top virus
T2 sequence (residues 1-94, tag not shown): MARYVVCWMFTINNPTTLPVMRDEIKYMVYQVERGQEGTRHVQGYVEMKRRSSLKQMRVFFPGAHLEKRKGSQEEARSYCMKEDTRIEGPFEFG
Method: as §1

[3] = test system: T3, Rep nickase domain of cabbage leaf curl virus
T3 sequence (residues 1-116, tag not shown): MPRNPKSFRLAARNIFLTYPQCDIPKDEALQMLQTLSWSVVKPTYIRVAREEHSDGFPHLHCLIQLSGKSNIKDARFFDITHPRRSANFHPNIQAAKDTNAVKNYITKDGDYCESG
Method: as §1

[4] = test system: T4, Rep nickase domain of chickpea chlorotic dwarf virus
T4 sequence (residues 1-124, tag not shown): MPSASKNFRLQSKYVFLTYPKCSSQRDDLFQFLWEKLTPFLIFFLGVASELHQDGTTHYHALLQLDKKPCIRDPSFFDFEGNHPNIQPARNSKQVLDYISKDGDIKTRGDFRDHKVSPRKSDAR
Method: as §1

[5] = test system: T5, Rep nickase domain of faba bean necrotic yellows virus
T5 sequence (residues 1-98, tag not shown): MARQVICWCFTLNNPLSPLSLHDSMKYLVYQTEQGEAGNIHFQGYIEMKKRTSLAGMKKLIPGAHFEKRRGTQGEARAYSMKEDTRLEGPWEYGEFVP
Method: as §1

[6] = test system: T6, Rep nickase domain of maize striate mosaic virus
T6 sequence (residues 1-117, tag not shown): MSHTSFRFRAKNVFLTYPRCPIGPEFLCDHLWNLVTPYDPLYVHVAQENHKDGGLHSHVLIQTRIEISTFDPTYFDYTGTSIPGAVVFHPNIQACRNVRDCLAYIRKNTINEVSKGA
Method: as §1

[7] = test system: T7, Rep nickase domain of porcine circovirus 2
T7 sequence (residues 2-116, tag not shown): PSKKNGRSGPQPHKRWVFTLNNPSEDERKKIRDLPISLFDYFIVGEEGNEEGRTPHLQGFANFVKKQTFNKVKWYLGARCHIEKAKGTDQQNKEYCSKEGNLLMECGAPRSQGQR
Method: as §1

[8] = test system: T8, Rep nickase domain of tomato yellow leaf curl virus
T8 sequence (residues 1-136, tag not shown): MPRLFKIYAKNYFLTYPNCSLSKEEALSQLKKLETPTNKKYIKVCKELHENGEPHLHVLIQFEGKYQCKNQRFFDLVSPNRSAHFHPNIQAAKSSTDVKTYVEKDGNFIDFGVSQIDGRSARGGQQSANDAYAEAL
Method: as §1

[9] = test system: T9, Rep nickase domain of wheat dwarf virus
T9 sequence (residues 1-137, tag not shown): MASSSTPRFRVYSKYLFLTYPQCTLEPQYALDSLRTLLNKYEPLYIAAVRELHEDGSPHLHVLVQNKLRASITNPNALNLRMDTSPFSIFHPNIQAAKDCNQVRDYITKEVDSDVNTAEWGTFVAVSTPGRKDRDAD
Method: as §1

Sequence	uncleaved DNA left (log2) [1]	uncleaved DNA left (log2) [2]	uncleaved DNA left (log2) [3]	uncleaved DNA left (log2) [4]	uncleaved DNA left (log2) [5]	uncleaved DNA left (log2) [6]	uncleaved DNA left (log2) [7]	uncleaved DNA left (log2) [8]	uncleaved DNA left (log2) [9]
CGATTGG	0.055	-0.0231	-0.38	-0.103	0.0093	-0.652	0.0311	-0.0859	0.0291
TCGTGCC	-0.191	-0.17	-0.239	-0.479	-0.0652	-0.863	-0.207	-0.135	-0.178
TCGGTCC	0.119	0.136	0.322	0.36	0.00979	0.334	0.14	0.116	0.19
CCAATGG	-0.0178	-0.0467	-0.139	-0.0905	0.0256	-0.76	0.0991	0.0342	-0.113
TCGCGGG	0.132	-0.0378	0.0846	0.128	0.014	-0.145	0.185	0.255	0.173
ATGGCTA	0.0298	0.0245	-0.136	-0.271	-0.0366	-0.121	-0.0351	-0.0395	-0.0819
ACCACAC	-0.109	0.00409	-0.0994	-0.394	-0.0459	-0.951	0.0149	-0.0462	-0.164
TAAGCAT	0.0773	0.0434	-1.47	-2.61	0.141	0.0517	0.0457	0.0832	-0.287
GGCTCGT	-0.0158	0.0356	0.316	0.755	0.0382	1.6	-0.058	0.0672	-0.000775
CCGGGGT	-0.0284	-0.0359	0.635	0.99	-0.154	1.93	0.0449	-0.0579	0.0484
AGCATTG	-0.0663	-0.0611	-0.156	0.47	-0.0263	1.11	0.0808	-0.0613	-0.0438
TCGAAAA	-0.0106	0.096	0.123	0.0313	0.0137	-0.448	-0.0201	0.104	0.0683
TAGCAAT	0.0459	0.0743	0.04	-1.02	-0.0156	0.379	-3.17	-0.0609	0.0312
CATTCAC	-0.0526	-0.0796	-0.327	-0.485	0.121	-1.21	-0.138	0.00694	-0.0119
CCTCCTT	-0.218	-0.207	-0.154	-2.39	-0.194	-0.332	-0.367	-0.195	-0.232
ACCCGGA	0.0767	0.0242	0.309	0.741	0.118	0.0278	0.137	-0.0529	0.0986
CCGATCT	0.0262	-0.142	0.00662	-1.61	0.1	-0.159	-0.224	0.022	-0.042
TTTGGAT	-0.0801	-0.0338	0.196	1.36	-0.0618	1.77	0.0534	-0.282	-0.0723
GAAAGCG	0.031	-0.0663	-0.717	0.533	0.0025	-0.516	0.166	0.0594	-0.146
TAGGTAG	0.00302	-0.0501	-0.706	-0.587	-0.0449	-1.14	0.0723	0.0814	-0.131
TTGGATG	-0.172	-0.195	-0.387	-0.281	-0.111	-0.49	-0.0399	-0.1	-0.194
TCTGCGT	0.0341	-0.162	-0.806	-0.0852	-0.00778	-0.943	-0.0981	-0.15	-0.154
AGGTTTA	-0.0299	0.0546	0.00791	-0.467	0.0247	0.388	-0.272	0.0914	0.0348
CACCCGC	-0.23	-0.0556	-0.434	-0.791	-0.072	-0.99	-0.313	0.0162	-0.0993
AGCCGCG	0.117	0.148	-0.562	0.566	0.0714	-0.443	0.229	0.153	0.0738
ACCTCTG	-0.144	-0.0943	-0.51	-0.246	-0.0964	-0.689	0.00834	0.0536	-0.142
GCGTTGT	-0.0617	-0.112	-0.149	0.14	-0.164	-0.154	-0.72	-0.0112	-0.106
AGTAAAA	0.0932	-0.012	0.175	0.383	0.1	-0.169	-0.361	0.101	0.0672
ATTTTGA	0.0109	-0.0528	-0.218	-0.477	-0.0318	-1.23	-0.0501	-0.0683	-0.114
ACTGCTG	0.0187	0.0452	0.0357	0.802	0.0987	0.297	0.126	0.057	-0.0028
